# Screen size: about 310,000 compounds; about 2,200 (0.71%) showed an effect of 50% or more. The effect is printed as a negative number. Some of the results follow.
# Biological target: human ether-à-go-go-related gene (hERG) potassium channel (human, UniProt Q12809)
# Assay: primary screen, population patch clamp on CHO cells stably expressing hERG
# human ether-à-go-go-related gene (hERG) potassium channel, sequence (Q12809 whole entry, looked up): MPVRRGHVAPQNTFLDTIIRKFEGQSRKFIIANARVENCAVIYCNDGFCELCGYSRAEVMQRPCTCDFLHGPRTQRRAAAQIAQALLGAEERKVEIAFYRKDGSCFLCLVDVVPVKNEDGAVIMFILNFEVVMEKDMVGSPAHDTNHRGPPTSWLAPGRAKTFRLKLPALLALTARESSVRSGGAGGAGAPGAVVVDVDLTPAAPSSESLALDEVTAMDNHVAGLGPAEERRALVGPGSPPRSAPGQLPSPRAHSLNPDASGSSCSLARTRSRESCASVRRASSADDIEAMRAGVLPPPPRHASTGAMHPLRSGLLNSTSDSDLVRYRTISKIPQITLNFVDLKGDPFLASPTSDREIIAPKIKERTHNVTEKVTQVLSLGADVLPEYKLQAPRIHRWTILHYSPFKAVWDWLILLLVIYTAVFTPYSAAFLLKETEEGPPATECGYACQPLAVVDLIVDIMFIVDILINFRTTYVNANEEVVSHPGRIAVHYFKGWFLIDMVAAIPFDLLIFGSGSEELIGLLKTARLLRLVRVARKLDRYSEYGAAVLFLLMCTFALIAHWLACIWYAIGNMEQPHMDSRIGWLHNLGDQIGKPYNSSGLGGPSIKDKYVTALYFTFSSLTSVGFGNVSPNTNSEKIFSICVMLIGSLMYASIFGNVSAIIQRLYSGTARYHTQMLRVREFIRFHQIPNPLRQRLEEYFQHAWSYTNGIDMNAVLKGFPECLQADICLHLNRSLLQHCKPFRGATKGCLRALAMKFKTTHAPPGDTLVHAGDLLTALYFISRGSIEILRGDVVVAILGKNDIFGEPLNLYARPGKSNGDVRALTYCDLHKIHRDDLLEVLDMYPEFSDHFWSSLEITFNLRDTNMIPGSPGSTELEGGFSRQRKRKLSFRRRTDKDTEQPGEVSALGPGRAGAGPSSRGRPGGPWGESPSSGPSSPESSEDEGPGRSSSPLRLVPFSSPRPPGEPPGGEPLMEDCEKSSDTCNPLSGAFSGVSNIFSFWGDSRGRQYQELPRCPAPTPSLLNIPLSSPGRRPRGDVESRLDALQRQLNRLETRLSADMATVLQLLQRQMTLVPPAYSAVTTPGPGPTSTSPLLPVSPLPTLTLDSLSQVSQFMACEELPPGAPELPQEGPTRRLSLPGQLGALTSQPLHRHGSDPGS
row,Structure (SMILES),"hERG current change (%, negative = inhibition) at 1uM"
1,CCC(C)NC(=O)C(=O)NCc1ccncc1 (stereo not drawn),10.8%
2,COc1ccccc1NC(=S)N1CCc2cc(OC)c(OC)cc2C1,5.83%
3,Cc1cc(-n2c(C)cc(C(=O)CSc3ccc4c(c3)OCCO4)c2C)no1,13.4%
4,CCCCCn1c(SCC(=O)OCC)nc2cc(C(=O)N3CCC(C(N)=O)CC3)ccc2c1=O,-5.67%
5,CCN(CC)S(=O)(=O)c1ccc2nc(NC(=O)c3ccco3)sc2c1,5.2%
6,COC(=O)c1ccc(C2C(C#N)=C(N)Oc3cc(C)n(C)c(=O)c32)cc1 (stereo not drawn),8.93%
7,CCCc1ccc2oc(C(=O)NCCCN3CCOCC3)c(C)c2c1,1.02%
8,Cc1ccc(C(=O)COc2cccc(NC(=O)c3ccco3)c2)cc1,2.14%
9,CCCCn1c(-c2csc(C(C)C)c2)n[nH]c1=S,19.3%
10,COC(=O)C1CCN(C(=O)Cc2c(OC)ccc3cc(Br)ccc23)CC1,12.2%
11,COc1ccc(N(CC(=O)NCc2ccc(C)cc2)S(=O)(=O)c2ccccc2[N+](=O)[O-])c(OC)c1,17.6%
12,CC(=O)Nc1ccc(NC(=O)CN(c2cccc([N+](=O)[O-])c2)S(C)(=O)=O)cc1,12.7%
13,CCOC(=O)c1cc(-c2ccc(N3CCOCC3)cc2)nn1-c1ccc(F)cc1F,-1.76%
14,Nc1ccc(C(=O)Oc2ccc([N+](=O)[O-])cc2)c(O)c1,11%
15,Cc1nn(C)cc1C(C(=O)NC1CCCCC1)N(C(=O)Cc1cccs1)c1ccc(Cl)cc1 (stereo not drawn),10.4%
16,CSc1cccc(NC(=O)CN(c2cc(C)ccc2C)S(C)(=O)=O)c1,2.09%
17,Cc1c(NC(=O)CCN2C(=O)c3ccccc3C2=O)c(=O)n(-c2ccccc2)n1C,-1.21%
18,CCc1ccc(NC(=O)COc2ccc(F)cc2C(=O)c2cnn(-c3ccccc3)c2)cc1,6.45%
19,COc1ccc(/C=N/NC(=O)c2nnn(-c3nonc3N)c2CN(C)c2ccccc2)cc1,13.6%
20,N#CC(=C1CCCC1)c1nc(-c2cc3ccccc3oc2=O)cs1,9.21%
21,Cn1c(=O)c2c(nc(NCc3ccco3)n2CC(O)COc2ccccc2)n(C)c1=O (stereo not drawn),-9.68%
22,Cc1cc(C)cc(N(CC(=O)N2CCC(C)CC2)S(=O)(=O)c2ccccc2)c1,-12.4%

row,Structure (SMILES),"hERG current change (%, negative = inhibition) at 1uM"
1,CN(C)CCc1cc2c(c3c1ccc1ccccc13)OCO2.Cl,10.4%
2,Clc1ccc(-c2csc(N3CCN(c4ccccc4)CC3)n2)cc1,6.51%
3,CN1C(=O)C(CC(=O)Nc2ccc(F)cc2)N(Cc2ccco2)C1=S (stereo not drawn),1.77%
4,COC(=O)c1ccc(Nc2cc(C)nc3ncnn23)cc1,3.7%
5,CSc1nc2sc3c(c2c(=O)[nH]1)CC(C)(C)OC3,14.3%
6,Cc1ccc(C(=O)N2CCN(c3ccc(NC(=O)c4ccc(Br)o4)cc3)CC2)cc1,-8.65%
7,C=CCc1cc(/C=N\NC(=O)CSc2nnc(CCCc3ccc(OC)c(C)c3)o2)cc(OC)c1O,0.468%
8,Cn1nc(C(F)(F)F)c(-c2ccccc2)c1N,16.1%
9,O=C1C(c2ccccc2)=[N+]([O-])c2ccccc21,13.2%
10,CCOc1c2ccc(C(=O)NCc3ccc4c(c3)OCO4)cc2nn1C,13%
11,Cc1ccc(N(C(=O)c2ccc3c(c2)OCO3)C2C=CS(=O)(=O)C2)cc1 (stereo not drawn),2%
12,CC1(C(=O)c2ccccc2)C2c3c(ccc4ccccc34)OC(=O)C21C(=O)N1CCOCC1 (stereo not drawn),6.89%
13,CCN(CC)S(=O)(=O)c1ccc(N2CCOCC2)c(NC(=O)c2ccc(=O)n(C)n2)c1,0.667%
14,COc1ccc(CN2CCNC(=O)C2CC(=O)N(C)Cc2ccccn2)cc1OC (stereo not drawn),15%
15,O=C(CN1C(=O)NC(Cc2c[nH]c3ccccc23)C1=O)NC1CC1 (stereo not drawn),7.29%
16,O=C(Nc1ccc2oc(-c3ccccc3)nc2c1)c1cc(-n2cnnc2)ccc1Cl,15.5%
17,COc1ccc(-n2c(N)c(-c3nc4ccccc4n3C)sc2=S)cc1,5.64%
18,CCC1(CC)NC(=O)N(CC(=O)OCC(=O)Nc2ccc(F)c(F)c2F)C1=O,4.85%
19,Cc1nn(Cc2ccc(F)cc2)c(C)c1NC(=O)c1cnn2c1NC(c1ccccc1)CC2C(F)(F)F (stereo not drawn),-7.25%
20,CCCCn1c(SCC(=O)c2ccc(OCC)cc2)nc2cc(S(N)(=O)=O)ccc21,12.9%
21,COCCNS(=O)(=O)c1ccc2c(c1)oc(=O)c1cc(S(=O)(=O)NCCOC)ccc12,2.31%
22,O=C(Cn1ncc2c([nH]c3ccccc32)c1=O)Nc1ccc(CN2CCCCC2)cc1,-29.3%

row,Structure (SMILES),"hERG current change (%, negative = inhibition) at 1uM"
1,COc1ccc(NC(=O)CCSc2cc(C)c3ccccc3n2)cc1,-2.94%
2,Cc1cnc(=O)[nH]c1SCC(=O)Nc1nccs1,2.76%
3,CC(C)(C)c1ccc(S(=O)(=O)N2CCN(c3ncccn3)CC2)cc1,11.4%
4,COCCNc1nnc(SC(C)C(=O)Nc2c(C)n(C)n(-c3ccccc3)c2=O)s1 (stereo not drawn),5.64%
5,Nc1nc2sc3c(c2c(=O)s1)CCCC3,12.5%
6,CN1CCN(C(c2cccnc2)c2ccc3cccnc3c2O)CC1 (stereo not drawn),13.1%
7,CCN1CCN(C(=O)/C(C#N)=C/c2ccc(OC(F)F)cc2)CC1.Cl,-28.5%
8,CN(CCCNC(=O)c1cn(C)c2ccc(S(=O)(=O)N(C)C)cc2c1=O)c1ccccc1,-7.84%
9,CC(C(=O)N1CCN(c2ccccc2F)CC1)c1ccc([N+](=O)[O-])cc1 (stereo not drawn),-7.04%
10,CCS(=O)(=O)N1CCC(C(=O)NCc2cccc(OC)c2)CC1,7.79%
11,COc1cccc(C2=NOC(C(=O)Nc3cc(C)on3)C2)c1OC (stereo not drawn),7.17%
12,CC(=O)c1ccc(NC(=O)C(C)OC(=O)c2ccc(Br)o2)cc1 (stereo not drawn),-6.96%
13,CC1CCN(C(=O)CCNC(=O)c2ccccc2Cl)CC1,8.51%
14,Cc1ccc(C(=O)Cn2nnc(-c3ccccc3)n2)cc1,11.8%
15,CCC(C)NS(=O)(=O)c1ccc(NC(=O)Cc2ccc(OC)cc2)cc1 (stereo not drawn),10.9%
16,CCN(Cc1ccccc1)C(=O)CCNS(=O)(=O)c1ccc2c(c1)CC(C)N2C(C)=O (stereo not drawn),7.11%
17,O=C(NC(=S)NC1CCCCC1)c1ccc(Cl)cc1,-3.64%
18,CC1CCN(c2ccc(-c3cccs3)nn2)CC1,4.68%
19,Cc1c(C(=O)N2CCN(c3ccccc3)CC2)oc2c1C(=O)CC(C)(C)C2,-0.551%
20,CCN(C(=O)c1ccc(C(C)(C)C)cc1)c1nnc(Cn2nnc3ccccc32)s1,7.42%
21,CN1CCN(c2ncnc3c2cnn3C)CC1,15%
22,CC1(c2nnc(-c3ccncc3)o2)CC(c2ccccc2)=NO1 (stereo not drawn),16.4%

row,Structure (SMILES),"hERG current change (%, negative = inhibition) at 1uM"
1,CCOc1cc(C(=O)O/N=C(\N)c2ccccn2)cc(OCC)c1OCC,2.3%
2,O=C(c1ccco1)c1coc2c1cc(O)c1ccccc12,11.8%
3,CCOC(=O)C1CCN(c2nc3ccccc3nc2C(C#N)C(=O)OC(C)C)CC1 (stereo not drawn),12.6%
4,Cc1ccc(C)c(OCC(=O)N/N=C/c2ccsc2)c1,11.7%
5,Cc1ccc(S(=O)(=O)N2CCN(c3ccccc3)CC2)cc1,13.7%
6,COc1ccc(C(=O)NCC(=O)n2nc(C)cc2C)cc1OC,21.5%
7,Cc1ccc(NC(=O)N2CCC(C(=O)NCc3ccc(F)cc3)CC2)cc1,-14%
8,Cc1ccc(NC2=CC(=O)C(=O)c3ccccc32)c(C)c1,12%
9,CS(=O)(=O)c1ccc(Cl)c(C(=O)OCC(=O)NC2CCCCCCC2)c1,-6.69%
10,Cc1cc(C)n(CC(O)COCc2ccccc2)n1 (stereo not drawn),10.6%
11,COc1ccc(-c2nc3ccc(C(=O)NCC(OC)OC)cc3nc2-c2ccc(OC)cc2)cc1,10.2%
12,COc1c(OC)c(O)c2c(=O)cc(-c3c(O)cccc3O)oc2c1OC,9.06%
13,CCN(CC)S(=O)(=O)c1cccc(NC(=O)c2ccccc2Br)c1,9.8%
14,Cc1ccc(-c2cc(C(F)F)n3ncc(C(=O)Nc4c(C)nn(Cc5c(Cl)cccc5Cl)c4C)c3n2)cc1,23.1%
15,COc1cccc(N2CCN(C(=O)c3cc(-c4ccc(F)cc4)[nH]c3C)CC2)c1,-23.8%
16,CC(=O)Nc1cnc2ccccc2n1,9.39%
17,O=C(CN(C(=O)CNC(=O)c1ccco1)c1ccc(F)cc1)NC1CCCCC1,7.31%
18,CSC(=NC#N)N1CCN(c2c(C)cccc2C)CC1,-7.55%
19,C[C@H]1CN=C(N(C)C)N1CC1CCC(C(C)(C)C)CC1 (stereo partly drawn),-15.4%
20,O=C(Nc1cccc(Cl)c1N1CCOCC1)c1ccc2c(c1)OCCO2,6.12%
21,O=C(COC(=O)C1CC2C=CC1C2)Nc1cccc(S(=O)(=O)N2CCCCCC2)c1 (stereo not drawn),3.14%

# Reference: paper PMC4336329 (PLoS ONE, 2015)
